Assay results published in PMC11603075 (Communications Biology, 2024).

Target: T1, KDM4E (Homo sapiens, UniProt B2RXH2)
T1 construct: KDM4E1–337; made in house; host or cells: E. coli
T1 sequence (B2RXH2 1-337): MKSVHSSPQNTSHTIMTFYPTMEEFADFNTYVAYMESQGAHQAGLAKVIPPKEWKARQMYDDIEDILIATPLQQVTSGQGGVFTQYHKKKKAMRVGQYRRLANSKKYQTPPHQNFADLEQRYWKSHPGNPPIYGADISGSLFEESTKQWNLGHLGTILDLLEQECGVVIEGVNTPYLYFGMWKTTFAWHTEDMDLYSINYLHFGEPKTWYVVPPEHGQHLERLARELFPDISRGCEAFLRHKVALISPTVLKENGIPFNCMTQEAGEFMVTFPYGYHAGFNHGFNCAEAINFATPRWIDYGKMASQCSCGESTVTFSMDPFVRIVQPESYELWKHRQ
Assay: LC–MS conversion (combined RDM and hydroxylation), KDM4E
Format: biochemical
Details: KDM4E 2 µM, 120 min
Method: MS-based screening assays with peptides and calf thymus histones were as reported; see Supplementary Table 6 for conditions. Time course assays were based on reported procedures. In brief, equal volumes of the enzyme and substrate solutions were combined to initiate the reaction; 10 µL of 2% (v/v) formic acid (HCOOH) in ddH2O or 100% methanol was added to 10 µL of the reaction mixture to quench reactions at different time points. Unless otherwise stated, time course assays were carried out in triplicate. In some cases, LC–MS was used instead of MALDI-TOF MS to avoid a MALDI matrix induced artefact with the hydroxylated product (Supplementary Fig. 16).
Supplementary Figure 6 Conversion of H2a peptides with increased concentrations of KDM4D.
Comparison of combined RDM and apparent hydroxylation activities of KDM4E and KDM4D with H2a(1– 20) and H2a(1–20 )R3 me2a. (a) Representative LC–MS spectra showing (120-minute incubation) (from top to bottom) KDM4E at 2 µM, KDM4D at 2 µM, and KDM4D at 10 µM with (from left to right) H2 a(1 –2 0 ) a n d […]
shift (hydroxylation). Charge state of labelled ions: [M + H]5+. *Low-level peaks indicating ~5% – 14 Da/+16 Da. (b) Bar graph comparing % product formation by KDM4E and KDM4D of H2a(1–20) and H2a(1– 20)R3me2a; n = 3 (independent assays). Se e Supplementary Table 6 for assay conditions.
(1 picture or pasted object on this page, not shown here)
[ E nz ym e] [Peptide] [2OG] [Ascorbate] [(NH4)2F e(S O4)2] [TCEP] Buffer pH7.5 Enzyme Cognate substrate (mM) (mM) (mM) (mM) (mM) (mM) [HE PE S]
Supplementary Table 6 Summary of MS assay conditions for substrate screening. These conditions enabled efficient turnover of established substrates. Reactions were carried out at 37 °C unless otherwise st ated. […]

Substance: Ac - SGR [ me 2a ] GKQ GGKAR AKAKT R SSR [H2a(1–20)R3me2a, H2a(1–20)R3me2a without a biotin tag]
- % product formation (combined RDM and apparent hydroxylation) (replicate 1): 67.0186%
- % product formation (combined RDM and apparent hydroxylation) (replicate 2): 79.659%
- % product formation (combined RDM and apparent hydroxylation) (replicate 3): 83.5069%
